The results in this text go back to article PMC5700166.

The list shows a part of the results, in another mix than the full data. The list includes weakly bound sequences.

For this assay, the target named is T1, GST-Co-NF-kB (UniProt F1ARL5).
T1 sequence: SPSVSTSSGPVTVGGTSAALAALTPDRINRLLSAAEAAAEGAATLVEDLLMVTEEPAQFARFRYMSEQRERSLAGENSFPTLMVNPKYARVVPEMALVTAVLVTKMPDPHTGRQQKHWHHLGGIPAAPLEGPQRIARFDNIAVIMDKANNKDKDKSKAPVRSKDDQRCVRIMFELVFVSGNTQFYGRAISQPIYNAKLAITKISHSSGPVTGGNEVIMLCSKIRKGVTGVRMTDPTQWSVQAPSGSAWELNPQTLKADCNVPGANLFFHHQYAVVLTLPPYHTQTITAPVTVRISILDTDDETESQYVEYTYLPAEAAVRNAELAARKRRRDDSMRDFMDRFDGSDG
The assay can be described thus: protein-binding microarray (PBM). Particulars: PBM: ~300 nM protein, 6 mM HEPES pH 7.8, 80 mM KCl, 0.5 mM EDTA, 0.5 mM EGTA, 6% glycerol, 35 ng/ul poly-dIdC, 1% milk, 1 h, room temperature; Ap Aiptasia and Nv Nematostella (sea anemones) / Co Capsaspora / Aq Amphimedon (sponge) / Dm Drosophila / Hu human; RHD is the Rel homology domain; high values mean tight binding; most listed sequences are background and not binding sites; double strand, one strand shown.
As to “CCGATTAACATCACGGACTTCCCTGATGTTAATCGGGTCTTGATTCGCTTGACGCTGCTG”, the binding signal is 0.974 z-score.

Turning to “CCGATTAACATCAGGGGATCTACTGATGTTAATCGGGTCTTGATTCGCTTGACGCTGCTG”, the binding signal came to 1.96 z-score. On to “CCGATTAACATCAGGCATCCCCCTGATGTTAATCGGGTCTTGATTCGCTTGACGCTGCTG”, for which the binding signal came out at 3.74 z-score. “CCGATTAACATCAGGGAGGCCCCTGATGTTAATCGGGTCTTGATTCGCTTGACGCTGCTG” gave a binding signal of 0.639 z-score. “CCGATTAACATCAAATATTCCCATGATGTTAATCGGGTCTTGATTCGCTTGACGCTGCTG” registered a binding signal of 3.51 z-score. “CCGATTAACATCAGGGGGAAAAATGATGTTAATCGGGTCTTGATTCGCTTGACGCTGCTG” had a binding signal of 11.6 z-score. “CCGATTAACATCAAGGATTCCCGTGATGTTAATCGGGTCTTGATTCGCTTGACGCTGCTG” came in with a binding signal of 3.1 z-score. “CCGATTAACATCAGAAGTTTCCCTGATGTTAATCGGGTCTTGATTCGCTTGACGCTGCTG”: the binding signal was found to be 5.14 z-score. Sequence “CCGATTAACATCAGGAAAGTACCTGATGTTAATCGGGTCTTGATTCGCTTGACGCTGCTG” displayed a binding signal of -0.479 z-score. “CCGATTAACATCAGGGGACAACCTGATGTTAATCGGGTCTTGATTCGCTTGACGCTGCTG”: the binding signal is 3.44 z-score. With “CCGATTAACATCAGATTCCCCCCTGATGTTAATCGGGTCTTGATTCGCTTGACGCTGCTG” the figure was 10 z-score; with “CCGATTAACATCACACAACCCCCTGATGTTAATCGGGTCTTGATTCGCTTGACGCTGCTG”, 2.31 z-score. With “CCGATTAACATCAGAAGATTCCCTGATGTTAATCGGGTCTTGATTCGCTTGACGCTGCTG”, the binding signal is 3.43 z-score. “CCGATTAACATCACTAGTCCCCCTGATGTTAATCGGGTCTTGATTCGCTTGACGCTGCTG”: the binding signal came to 3.98 z-score.
